The list shows a part of the results. Repeats are few or missing, and single values can be far off.
How the values were obtained:
Test in all cases: cell count relative to DMSO control; melanoma cells; higher = more viable cells
Conditions in all cases: library dose: standard library concentration; 72 h
[1] = test system: G361
[2] = test system: IPC-298
[3] = test system: IST-MEL1
[4] = test system: LB2518-MEL
[5] = test system: LOXIMVI
[6] = test system: MEL-HO
[7] = test system: MZ2-MEL
[8] = test system: MeWo
[9] = test system: RPMI7951
[10] = test system: RVH-421
[11] = test system: SkMel28
[12] = test system: SkMel2
[13] = test system: SkMel30
[14] = test system: SkMel5
[15] = test system: UACC257
[16] = test system: UACC62
[17] = test system: WM115
[18] = test system: WM1716
[19] = test system: WM1745
[20] = test system: WM3526
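Further: cells treated in 1,536-well plates, then fixed and DAPI-stained, with nuclei counted from automated high-throughput microscope images.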

Nc1nc(F)nc2c1ncn2[C@@H]1O[C@H](CO)[C@@H](O)[C@@H]1O [fludarabine] + CC(=O)c1c(C)c2cnc(Nc3ccc(N4CCNCC4)cn3)nc2n(C2CCCC2)c1=O [palbociclib] (first compound 1 µM, partner dose 0.2 µM)
cell count [1]: 68%
cell count [2]: 55.5%
cell count [3]: 60.4%
cell count [4]: 68.7%
cell count [5]: 66.5%
cell count [6]: 65.4%
cell count [7]: 65.3%
cell count [8]: 65.3%
cell count [9]: 66.4%
cell count [10]: 75.1%
cell count [11]: 1.57%
cell count [12]: 1.29%
cell count [13]: 18.5%
cell count [14]: 24.2%
cell count [15]: 30.6%
cell count [16]: 57.3%
cell count [17]: 62.4%
cell count [18]: 49.6%
cell count [19]: 71.2%
cell count [20]: 28.8%

CC(=O)O[C@@]12CO[C@@H]1C[C@H](O)[C@@]1(C)C(=O)[C@H](O)C3=C(C)[C@@H](OC(=O)[C@H](O)[C@@H](NC(=O)OC(C)(C)C)c4ccccc4)C[C@@](O)([C@@H](OC(=O)c4ccccc4)[C@H]21)C3(C)C [Docetaxel] + Cc1cc(Nc2cc(N3CCN(C)CC3)nc(/C=C/c3ccccc3)n2)n[nH]1 [ENMD2076] (first compound 0.0005 µM, partner dose 0.2 µM)
cell count [1]: 16.6%
cell count [2]: 40.8%
cell count [3]: 39.3%
cell count [4]: 43.5%
cell count [5]: 52.8%
cell count [6]: 46.4%
cell count [7]: 45.5%
cell count [8]: 39.1%
cell count [9]: 23.2%
cell count [10]: 67.9%
cell count [11]: 13.1%
cell count [12]: 23.5%
cell count [13]: 53.3%
cell count [14]: 42%
cell count [15]: 67.4%
cell count [16]: 60.7%
cell count [17]: 43.4%
cell count [18]: 41.1%
cell count [19]: 35.5%
cell count [20]: 52.5%

CC(=O)O[C@@]12CO[C@@H]1C[C@H](O)[C@@]1(C)C(=O)[C@H](O)C3=C(C)[C@@H](OC(=O)[C@H](O)[C@@H](NC(=O)OC(C)(C)C)c4ccccc4)C[C@@](O)([C@@H](OC(=O)c4ccccc4)[C@H]21)C3(C)C [Docetaxel] + OCCn1cc(-c2cnc3nnn(Cc4ccc5ncccc5c4)c3n2)cn1 [PF04217903] (first compound 0.0005 µM, partner dose 5 µM)
cell count [1]: 10.5%
cell count [2]: 44.5%
cell count [3]: 47.9%
cell count [4]: 43.7%
cell count [5]: 71.2%
cell count [6]: 45.6%
cell count [7]: 48%
cell count [8]: 28.4%
cell count [9]: 26%
cell count [10]: 36.9%
cell count [11]: 12%
cell count [12]: 16.7%
cell count [13]: 53.9%
cell count [14]: 32.9%
cell count [15]: 61.3%
cell count [16]: 65.6%
cell count [17]: 41.3%
cell count [18]: 34.3%
cell count [19]: 41%
cell count [20]: 42%

Nc1ncn([C@H]2C[C@H](O)[C@@H](CO)O2)c(=O)n1 [decitabine] + O=C(CCCCCCC(=O)Nc1ccccc1)NO [vorinostat] (first compound 0.5 µM, partner dose 0.4 µM)
cell count [1]: 54%
cell count [2]: 55.6%
cell count [3]: 66%
cell count [4]: 68%
cell count [5]: 73.7%
cell count [6]: 77.4%
cell count [7]: 77.9%
cell count [8]: 67.7%
cell count [9]: 68.5%
cell count [10]: 69.3%
cell count [11]: 65.9%
cell count [12]: 75.5%
cell count [13]: 62.4%
cell count [14]: 65.1%
cell count [15]: 73.8%
cell count [16]: 78.2%
cell count [17]: 64.8%
cell count [18]: 72%
cell count [19]: 63.9%
cell count [20]: 81.6%

CC(=O)O[C@@]12CO[C@@H]1C[C@H](O)[C@@]1(C)C(=O)[C@H](O)C3=C(C)[C@@H](OC(=O)[C@H](O)[C@@H](NC(=O)OC(C)(C)C)c4ccccc4)C[C@@](O)([C@@H](OC(=O)c4ccccc4)[C@H]21)C3(C)C [Docetaxel] + Cn1nnc2c(C(N)=O)ncn2c1=O [temozolomide] (first compound 0.0005 µM, partner dose 10 µM)
cell count [1]: 23.8%
cell count [2]: 35.2%
cell count [3]: 46.9%
cell count [4]: 42.4%
cell count [5]: 59.6%
cell count [6]: 40.5%
cell count [7]: 37%
cell count [8]: 21.6%
cell count [9]: 15.6%
cell count [10]: 42.5%
cell count [11]: 13.5%
cell count [12]: 15.1%
cell count [13]: 36.4%
cell count [14]: 29%
cell count [15]: 48.6%
cell count [16]: 47.2%
cell count [17]: 31.6%
cell count [18]: 31%
cell count [19]: 28.8%
cell count [20]: 35.7%

Nc1nc(F)nc2c1ncn2[C@@H]1O[C@H](CO)[C@@H](O)[C@@H]1O [fludarabine] + C#Cc1cccc(Nc2ncnc3cc(OCCOC)c(OCCOC)cc23)c1 [erlotinib] (first compound 1 µM, partner dose 4 µM)
cell count [1]: 85.3%
cell count [2]: 49.5%
cell count [3]: 74.6%
cell count [4]: 84.4%
cell count [5]: 80.4%
cell count [6]: 64.1%
cell count [7]: 77.8%
cell count [8]: 82%
cell count [9]: 58.2%
cell count [10]: 75.1%
cell count [11]: 1.59%
cell count [12]: 1.07%
cell count [13]: 17.4%
cell count [14]: 36.5%
cell count [15]: 29.7%
cell count [16]: 41.3%
cell count [17]: 61.7%
cell count [18]: 86.7%
cell count [19]: 65.7%
cell count [20]: 34.6%

CC(=O)O[C@@]12CO[C@@H]1C[C@H](O)[C@@]1(C)C(=O)[C@H](O)C3=C(C)[C@@H](OC(=O)[C@H](O)[C@@H](NC(=O)OC(C)(C)C)c4ccccc4)C[C@@](O)([C@@H](OC(=O)c4ccccc4)[C@H]21)C3(C)C [Docetaxel] + COc1ccc(Cl)c(Nc2nc3ccccc3nc2NS(=O)(=O)c2cccc(NC(=O)C(C)(C)N)c2)c1 [XL147] (first compound 0.0005 µM, partner dose 4 µM)
cell count [1]: 15.9%
cell count [2]: 39.4%
cell count [3]: 43.7%
cell count [4]: 35.6%
cell count [5]: 89.3%
cell count [6]: 46.9%
cell count [7]: 45.2%
cell count [8]: 32%
cell count [9]: 16.2%
cell count [10]: 53.9%
cell count [11]: 24.1%
cell count [12]: 28.4%
cell count [13]: 52.5%
cell count [14]: 35.3%
cell count [15]: 72.6%
cell count [16]: 46%
cell count [17]: 43.1%
cell count [18]: 37.3%
cell count [19]: 39.2%
cell count [20]: 52.5%

Nc1ncn([C@H]2C[C@H](O)[C@@H](CO)O2)c(=O)n1 [decitabine] + Clc1ccc(Nc2nnc(Cc3ccncc3)c3ccccc23)cc1 [vatalanib] (first compound 0.5 µM, partner dose 10 µM)
cell count [1]: 59.4%
cell count [2]: 41.6%
cell count [3]: 64.2%
cell count [4]: 57%
cell count [5]: 27%
cell count [6]: 55.1%
cell count [7]: 45.4%
cell count [8]: 51.8%
cell count [9]: 40.4%
cell count [10]: 200%
cell count [11]: 54.1%
cell count [12]: 56%
cell count [13]: 62.4%
cell count [14]: 45.8%
cell count [15]: 64.6%
cell count [16]: 53%
cell count [17]: 50%
cell count [18]: 62.4%
cell count [19]: 20.8%
cell count [20]: 58.7%

Nc1ncn([C@H]2C[C@H](O)[C@@H](CO)O2)c(=O)n1 [decitabine] + Cc1cc(N2CCOCC2)cc2[nH]c(-c3c(NC[C@@H](O)c4cccc(Cl)c4)cc[nH]c3=O)nc12 [BMS536924] (first compound 0.5 µM, partner dose 1 µM)
cell count [1]: 85.2%
cell count [2]: 89.7%
cell count [3]: 92.4%
cell count [4]: 91.1%
cell count [5]: 92.6%
cell count [6]: 89%
cell count [7]: 134%
cell count [8]: 78.2%
cell count [9]: 97.6%
cell count [10]: 94.7%
cell count [11]: 117%
cell count [12]: 86.1%
cell count [13]: 87.5%
cell count [14]: 81.4%
cell count [15]: 112%
cell count [16]: 97.3%
cell count [17]: 99.5%
cell count [18]: 102%
cell count [19]: 54.8%
cell count [20]: 78.9%

CO[C@H]1C[C@@H]2CC[C@@H](C)[C@@](O)(O2)C(=O)C(=O)N2CCCC[C@H]2C(=O)O[C@H]([C@H](C)C[C@@H]2CC[C@@H](OCCO)[C@H](OC)C2)CC(=O)[C@H](C)/C=C(\C)[C@@H](O)[C@@H](OC)C(=O)[C@H](C)C[C@H](C)/C=C/C=C/C=C/1C [everolimus] + Cn1c(Nc2ccc(C(F)(F)F)cc2)nc2cc(Oc3ccnc(-c4ncc(C(F)(F)F)[nH]4)c3)ccc21 [CHIR265] (first compound 0.1 µM, partner dose 0.4 µM)
cell count [1]: 11.5%
cell count [2]: 38%
cell count [3]: 46.9%
cell count [4]: 18.9%
cell count [5]: 80.5%
cell count [6]: 47.1%
cell count [7]: 36.1%
cell count [8]: 41%
cell count [9]: 42.8%
cell count [10]: 40.6%
cell count [11]: 20.7%
cell count [12]: 30.3%
cell count [13]: 52.6%
cell count [14]: 34.5%
cell count [15]: 71.2%
cell count [16]: 40.8%
cell count [17]: 25.7%
cell count [18]: 47.1%
cell count [19]: 53%
cell count [20]: 37.8%

CO[C@H]1C[C@@H]2CC[C@@H](C)[C@@](O)(O2)C(=O)C(=O)N2CCCC[C@H]2C(=O)O[C@H]([C@H](C)C[C@@H]2CC[C@@H](OCCO)[C@H](OC)C2)CC(=O)[C@H](C)/C=C(\C)[C@@H](O)[C@@H](OC)C(=O)[C@H](C)C[C@H](C)/C=C/C=C/C=C/1C [everolimus] + NCC(=O)Nc1ccc(-n2nc(C(F)(F)F)cc2-c2ccc3c(ccc4ccccc43)c2)cc1 [OSU03012] (first compound 0.1 µM, partner dose 5 µM)
cell count [1]: 71.9%
cell count [2]: 65.2%
cell count [3]: 77.1%
cell count [4]: 79.2%
cell count [5]: 86.3%
cell count [6]: 83.8%
cell count [7]: 106%
cell count [8]: 85.9%
cell count [9]: 62.5%
cell count [10]: 78.4%
cell count [11]: 35.4%
cell count [12]: 42.1%
cell count [13]: 57.8%
cell count [14]: 50.3%
cell count [15]: 84.9%
cell count [16]: 63.1%
cell count [17]: 53.5%
cell count [18]: 73.1%
cell count [19]: 87.7%
cell count [20]: 56.6%

Nc1ccn([C@@H]2O[C@H](CO)[C@@H](O)C2(F)F)c(=O)n1 [gemcitabine] + OCCn1cc(-c2cnc3nnn(Cc4ccc5ncccc5c4)c3n2)cn1 [PF04217903] (first compound 0.002 µM, partner dose 5 µM)
cell count [1]: 50.7%
cell count [2]: 56.7%
cell count [3]: 38.3%
cell count [4]: 52.8%
cell count [5]: 74.1%
cell count [6]: 60.7%
cell count [7]: 85.3%
cell count [8]: 40.8%
cell count [9]: 58.1%
cell count [10]: 77.7%
cell count [11]: 84.2%
cell count [12]: 83.4%
cell count [13]: 90.9%
cell count [14]: 81.2%
cell count [15]: 105%
cell count [16]: 79.3%
cell count [17]: 88.7%
cell count [18]: 67.8%
cell count [19]: 49.7%
cell count [20]: 85.2%

Nc1ccn([C@@H]2O[C@H](CO)[C@@H](O)C2(F)F)c(=O)n1 [gemcitabine] + O=C(Nc1cccc(Cl)c1)Nc1ncc(CCNc2ncnc3ccsc23)s1 [SNS314] (first compound 0.002 µM, partner dose 0.004 µM)
cell count [1]: 34.5%
cell count [2]: 56.4%
cell count [3]: 40.1%
cell count [4]: 55%
cell count [5]: 68%
cell count [6]: 56.6%
cell count [7]: 77.8%
cell count [8]: 38.5%
cell count [9]: 65.5%
cell count [10]: 63.4%
cell count [11]: 56.8%
cell count [12]: 78.5%
cell count [13]: 81.6%
cell count [14]: 83.7%
cell count [15]: 67.4%
cell count [16]: 68.5%
cell count [17]: 49.6%
cell count [18]: 55.4%
cell count [19]: 54.8%
cell count [20]: 69.4%

Nc1ncn([C@H]2C[C@H](O)[C@@H](CO)O2)c(=O)n1 [decitabine] + O=C(O)c1ccc(-c2c[nH]c3ncc(-c4ccccc4)cc23)cc1C1CCCC1 [GSK650394] (first compound 0.5 µM, partner dose 0.8 µM)
cell count [1]: 60.9%
cell count [2]: 62.3%
cell count [3]: 54.6%
cell count [4]: 77.2%
cell count [5]: 81.9%
cell count [6]: 69.1%
cell count [7]: 76.2%
cell count [8]: 58.7%
cell count [9]: 72.5%
cell count [10]: 67.7%
cell count [11]: 78.8%
cell count [12]: 106%
cell count [13]: 113%
cell count [14]: 66.3%
cell count [15]: 85%
cell count [16]: 76.8%
cell count [17]: 69.1%
cell count [18]: 70.5%
cell count [19]: 66.5%
cell count [20]: 97.8%

Source: the supplement of paper PMC4604168 (melanoma cell lines)
